Data published in PubChem BioAssay (NCI).
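Step 1: Grow cells in 96-well plates. Step 2: Expose to compound for 48 hours at 5 concentrations. Step 3: Interpolate endpoints linearly; if unreached, use highest concentration. GI50: concentration for 50% inhibition of growth. Definition used: TGI = concentration required for complete inhibition of growth.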 Peptide text beside a SMILES is read from it. * marks the point of attachment. Trt = c1ccc(C(c2ccccc2)(c2ccccc2)*)cc1; Cbz = O=C(OCc1ccccc1)*

Tested on: NCI-H322M lung
Experiment: inhibition of tumour cell growth, NCI panel, 48 h

Point of comparison: `C[C@@]1([C@H](OC(=O)c2ccccc2)C(N)=O)CO1`, GI50 42.7 µM. Against it:
- C=C1C(=O)O[C@H]2[C@H]1CC/C(COC(=O)c1cc(OC)c(OC)c(OC)c1)=C\CC[C@@]1(C)O[C@@H]21 — 18-fold lower, 2.41 µM
- NC(=O)c1ccc2c(c1)-c1nc-2nc2[n-]c(nc3nc(nc4[n-]c(n1)c1ccc(C(N)=O)cc41)-c1ccc(C(N)=O)cc1-3)c1ccc(C(N)=O)cc21.[Co+2] — higher, > 50 µM
- O=C1Nc2ccc(Cl)cc2/C1=C\c1c(-c2ccc(Cl)cc2)nc2sc(C3CC3)nn12 — 9.3-fold lower, 4.6 µM
- CN(C)c1ccc(/C=C\c2ccnc3ccccc23)cc1 — within 1.5-fold, 46.7 µM
- COc1cc2oc(-c3cccc(C(=O)Nc4ccc(Cl)cc4)c3)cc(=O)c2c(OC)c1OC — 17-fold lower, 2.56 µM
- COc1cc(CNCCCCCCN2C(=O)c3cccc4cccc(c34)C2=O)ccc1O — 8.6-fold lower, 4.98 µM

Point of comparison: `O=S1(=O)N2CN3CN(C2)CN1C3`, TGI 363 µM. Against it:
- C[C@@]1([C@H](OC(=O)c2ccccc2)C(N)=O)CO1 — 5.1-fold lower, 70.7 µM
- COC(=O)C(=O)Cc1nc2ccccc2s1 — not separable, > 100 µM
- COc1cccc2c1-c1nc(N)c3c(OC)cccc3c1C2=O — not separable, > 100 µM
- C=C1C(=O)O[C@H]2[C@H]1CC/C(COC(=O)c1cc(OC)c(OC)c(OC)c1)=C\CC[C@@]1(C)O[C@@H]21 — 42-fold lower, 8.66 µM
- Cc1c(O)c(=O)ccn1CCN — not separable, > 100 µM
- NC(=O)c1ccc2c(c1)-c1nc-2nc2[n-]c(nc3nc(nc4[n-]c(n1)c1ccc(C(N)=O)cc41)-c1ccc(C(N)=O)cc1-3)c1ccc(C(N)=O)cc21.[Co+2] — not separable, > 50 µM
- COc1ccc(-n2c(CCC(=O)O)nc3c2C(=O)c2ccccc2C3=O)cc1 — not separable, > 100 µM
- O=C1CN(c2ccccc2)Cc2nc(Cl)ccc2N1 — not separable, > 100 µM
- N#C/C(=C\c1ccncc1)c1csc2ccccc12 — not separable, > 86.7 µM
- Nc1nnc2c(-c3ccccc3)[nH]nc2n1 — not separable, > 100 µM
- CCOC(=O)c1c[nH]c(C(=O)OCC)c1-c1cccn1-c1ccccc1 — 5.5-fold lower, 66.2 µM
- Nc1nc2c(N)cc(C(F)(F)F)cc2nc1-c1ccccc1 — not separable, > 100 µM
- CC(C)(C)c1cc(CCC(=O)Nc2ccc(Cl)cc2)[nH]c(=S)n1 — not separable, > 100 µM
- O=C1Nc2ccc(Cl)cc2/C1=C\c1c(-c2ccc(Cl)cc2)nc2sc(C3CC3)nn12 — 19-fold lower, 19.2 µM
- NS(=O)(=O)c1ccc(NC(=O)N/N=C/c2ccccc2O)cc1 — not separable, > 100 µM
- C/C(=C/C(=O)Nc1ccccc1)Nc1onc(C)c1C — not separable, > 100 µM
- CCCCCCCC/C=C1\CCC(CN(C)C)C1=O (configuration not stated) — 12-fold lower, 31.2 µM
- CN(C)c1ccc(/C=C\c2ccnc3ccccc23)cc1 — not separable, > 100 µM
- COC(=O)C(CO)NC(=O)C(CSC(c1ccccc1)(c1ccccc1)c1ccccc1)NC(=O)OCc1ccccc1 (configuration not stated) (Cbz-Cys(Trt)-Ser-OMe; configuration not given here) — 7.6-fold lower, 47.8 µM
- COc1cc2oc(-c3cccc(C(=O)Nc4ccc(Cl)cc4)c3)cc(=O)c2c(OC)c1OC — not separable, > 100 µM
- CC1(C)OC(=O)C(C)(C)C(=O)O1 — not separable, > 100 µM
- COC(=O)CCSC(=O)Nc1ccc(N=Nc2ccccc2)cc1 — not separable, > 100 µM
- COc1cc(CNCCCCCCN2C(=O)c3cccc4cccc(c34)C2=O)ccc1O — 20-fold lower, 18.6 µM
- Cc1cc2ncn(-c3nc4ccccc4nc3C(C#N)S(C)(=O)=O)c2cc1C (configuration not stated) — not separable, > 100 µM
